# Reference: PubChem BioAssay AID1030 (National Center for Advancing Translational Sciences (NCATS), 2008)
# Where “and” joins values, the source holds several entries; their conditions need not be identical. Equal values may be shown once. Screen size: about 220,000 compounds; about 16,000 (7.3%) were called active. The shares of active, inactive and inconclusive entries below differ from those in the screen. Calls follow the shape of the dose curve; as a rule, active = well fitted inhibition curve with a large enough effect (not every such curve was filed as active); inconclusive = small, poorly fitted or top-dose-only effect, or another doubt; inactive = no such curve, though single readings can be large or run the other way. Where the call is inconclusive, the potency comes from a doubtful curve fit. A structure can be active in one record and inactive in another.
# Biological target: Aldehyde dehydrogenase 1A1 (Homo sapiens) (UniProt P00352)
# Assay: qHTS Assay for Inhibitors of Aldehyde Dehydrogenase 1 (ALDH1A1);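 as to activity, negative = inhibition: plate controls were no enzyme wells and a reference inhibitor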
# Details: Purified ALDH1A1, NADH fluorescence, propionaldehyde substrate; series mostly up to 75.3 µM
# Potency is read from the fitted curve at half-maximal effect; tags tell the direction and shape of the fitted curve.
# Sequence of UniProt P00352 (P00352 whole entry, looked up): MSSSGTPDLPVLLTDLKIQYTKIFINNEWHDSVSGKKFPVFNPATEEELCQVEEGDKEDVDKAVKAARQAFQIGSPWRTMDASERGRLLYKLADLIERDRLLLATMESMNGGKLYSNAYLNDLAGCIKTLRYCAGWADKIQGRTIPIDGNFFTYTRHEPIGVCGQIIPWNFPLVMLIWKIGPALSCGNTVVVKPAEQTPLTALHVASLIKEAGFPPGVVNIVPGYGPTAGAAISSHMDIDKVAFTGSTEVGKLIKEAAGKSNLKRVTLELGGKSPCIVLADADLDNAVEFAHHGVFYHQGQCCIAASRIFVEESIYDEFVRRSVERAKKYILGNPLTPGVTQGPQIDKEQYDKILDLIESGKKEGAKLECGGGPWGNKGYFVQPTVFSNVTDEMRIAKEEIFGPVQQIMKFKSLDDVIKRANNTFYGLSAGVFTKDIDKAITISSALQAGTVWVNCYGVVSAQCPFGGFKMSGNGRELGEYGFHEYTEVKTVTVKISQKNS
Structure (SMILES),Potency,"activity, negative = inhibition"
C=CCN1C(=O)/C(=C/c2ccc3c(c2)CCCN3CCC)C(=O)NC1=S,active: 1.26 µM,–
COCC(=O)N1CCC2(CCCN(Cc3ccncc3)C2)CC1,"inconclusive: 31.6 µM [inhibitor, single point]",–
Oc1ccc(/C=N/NP(=S)(c2ccccc2)c2ccccc2)cc1,active: 20 µM,–
CN1CCN(c2ccc(F)cc2N)CC1,"inconclusive: 39.8 µM [inhibitor, single point]",–
COP(=O)(OC)OC=C(Cl)Cl,"inactive and inconclusive: 44.7 µM [inhibitor, single point]",–
CCn1c(O)c(/C(C)=N/N2CCCCC2c2cccnc2)c(=O)[nH]c1=S (centres undefined),inactive,–
CSc1ncc(/C=C2/C(=O)NC(=O)N(c3ccc(Cl)cc3)C2=O)cn1,"inconclusive: 39.8 µM [inhibitor, single point]",–
CN1C(=O)C(Cc2ccsc2)C(=O)N(C)C1=O,active: 12.6 µM,–
O=S(=O)(c1ccc(Cl)cc1)N1CC1c1ccccc1 (centres undefined),"inconclusive: 39.8 µM [inhibitor, single point]",–
O=C(CNC(=O)c1ccccc1)Nc1ccc(Br)cc1C(=O)c1ccccc1,inactive,–
Cc1cc(S(=O)(=O)NCc2ccccc2)ccc1OCC(=O)N1CCN(C)CC1,inactive,–
Cc1ccsc1-c1nc(CSCC(=O)N2CCC3(CC2)OCCO3)c(C)o1,"inconclusive: 35.5 µM [inhibitor, single point]",–
O=c1[nH]c(=S)n(-c2ccccc2F)c(O)c1C=NCc1ccco1,inactive,–
N#CC(C#N)=Cc1ccc(O)c(O)c1,active: 22.4 µM and active: 10 µM and active: 11.2 µM,–
CC(C)[C@H]1C(=O)N2CCC[C@H]2[C@]2(O)O[C@](NC(=O)[C@@H]3C=C4c5cccc6[nH]cc(c56)C[C@H]4N(C)C3)(C(C)C)C(=O)N12,"inconclusive: 25.1 µM [inhibitor, partial curve]",–
CCN1CCN(Cc2cc(OC)c(OC)cc2[N+](=O)[O-])CC1,"inconclusive: 39.8 µM [inhibitor, single point]",–
O=C1NC(=O)N(c2ccc3c(c2)OCO3)C(=O)/C1=C\c1ccc(N2CCCCC2)o1,"inconclusive: 39.8 µM [inhibitor, single point]",–
CC(=O)C1CCC2C3CCC4CC(O)CCC4(C)C3CC(O)C12C (centres undefined),inactive,–
C[C@@](Br)(C(=O)O)[C@H](Br)C(=O)O,–,inactive: -2.39% [at 13.5 µM]
CCOc1cc(-c2c(C#N)c(=O)[nH]c3c2c(C)nn3-c2ccc(F)cc2)ccc1O,"inconclusive: 28.2 µM [inhibitor, partial curve]",–
O=C1NC(=O)C(=CN2CCc3ccccc32)C(=O)N1,active: 11.2 µM,–
COc1cc2ccccc2c2cc([N+](=O)[O-])oc12,–,inactive: -6.32% [at 13.5 µM]
CC1(C)C(=O)C=C[C@@]2(C)C1CC(O)[C@]1(C)C2CC[C@@]2(C)C(c3ccoc3)OC(=O)C3O[C@]312 (some centres undefined),inactive,–
O=c1[nH]c(O)c(N=Nc2ccc([N+](=O)[O-])cc2)c(=O)[nH]1,"inconclusive: 39.8 µM [inhibitor, single point]",–
Cc1ccccc1CN1CCN(c2ccc(Cl)cc2)CC1,inactive,–

Structure (SMILES),Potency,"activity, negative = inhibition"
O[N+]1=CC=CCC1=S.On1ccccc1=S.[Zn],active: 2.82 µM,–
CN1/C(=C\C=C2C(=O)NC(=O)NC2=O)C(C)(C)c2ccccc21,inactive,–
O=C(CNC(=O)c1ccccc1)NCC(=O)OCC(=O)c1ccc([N+](=O)[O-])cc1,active: 0.891 µM,–
Fc1ccc(C(OCCN2CCN(C/C=C\c3ccccc3)CC2)c2ccc(F)cc2)cc1,inactive,–
CCC(=O)N1CC(=O)Nc2ccc(Br)cc2C1c1ccccc1 (centres undefined),inactive,–
c1ccc([Se]c2c(-c3ccccc3)[se]c3ccccc23)cc1,inactive,–
COc1cc2[nH]c(=O)n(-c3ccccc3)c(=O)c2cc1OC,"inconclusive: 25.1 µM [inhibitor, partial curve]",–
Cc1ccc(/C=C2\C(=O)NC(=O)N(Cc3ccccc3Cl)C2=O)o1,"inconclusive: 28.2 µM [inhibitor, single point]",–
COc1cc2c(cc1OC)[C@@H]1C(=O)c3ccc(O)c(CC=C(C)C)c3OC1CO2 (some centres undefined),inactive,–
CCCCC/C=C\C/C=C\C/C=C\C/C=C\CCCC(=O)NCCCl,"inconclusive: 39.8 µM [inhibitor, single point]",–
CCn1c(NN=O)nc2ccccc21,"inconclusive: 22.4 µM [inhibitor, partial curve]",–
Cc1ccc(-c2nn(Cc3ccccc3)cc2C=O)cc1C,"inconclusive: 39.8 µM [inhibitor, single point]",–
Oc1cc2c(cc1O)[C@H]1c3ccccc3CN[C@H]1CC2,"inconclusive: 37.7 µM [inhibitor, single point]",–
CCCC(C)C1(CC)C(=O)NC(=O)NC1=O (centres undefined),"inconclusive: 31.6 µM [inhibitor, single point]",–
COc1ccc(CN2C(=O)NC(=O)/C(=C\c3cc(OC)c(OC)c(OC)c3)C2=O)cc1,inactive,–
Cc1[nH]n(-c2ccccc2)c(=O)c1C(C[N+](=O)[O-])c1ccccc1Cl (centres undefined),"inconclusive: 28.2 µM [inhibitor, partial curve]",–
O=c1cc(-c2ccc(O)c(O)c2)oc2c(C3O[C@H](CO)[C@@H](O)[C@H](O)[C@H]3O)c(O)cc(O)c12 (some centres undefined),"inconclusive: 28.2 µM [inhibitor, single point]",–
COc1cccc(N2C(=O)NC(=O)/C(=C/c3ccc4c(c3)Cc3ccccc3-4)C2=O)c1,"inconclusive: 14.1 µM [inhibitor, partial curve]",–
CCOc1ccc(-n2c(O)c(N=Nc3c(C)n(C)n(-c4ccccc4)c3=O)c(=O)[nH]c2=O)cc1,active: 15.8 µM,–
O=C1/C(=C/c2cccc([N+](=O)[O-])c2)N2CCC1CC2,"inconclusive: 22.4 µM [inhibitor, partial curve]",–
Cc1nn(CCc2n[nH]c(=S)n2-c2cccc(Cl)c2)c(C)c1[N+](=O)[O-],"inconclusive: 39.8 µM [inhibitor, single point]",–
NC(=O)c1cc(N2CC2)c([N+](=O)[O-])cc1[N+](=O)[O-],inactive,–
Cc1cc(N(CCCl)CCCl)ccc1/C=N/NC(=O)c1ccco1,"inconclusive: 35.5 µM [inhibitor, single point]",–
O=[N+]([O-])c1ccc(F)c([N+](=O)[O-])c1,active: 20 µM,–
COC(=O)C1=CO[C@@H](C)[C@@H]2CN3CCc4c([nH]c5cc(OC)ccc45)[C@@H]3C[C@H]12,"inconclusive: 31.6 µM [inhibitor, single point]",–

Structure (SMILES),Potency,"activity, negative = inhibition"
O=[N+]([O-])c1ccc(N2CCCCCC2)c2ncccc12,"inconclusive: 20 µM [inhibitor, single point]",–
CP(=O)(O)C1=CCNCC1,inactive,–
CCOP(=S)(OCC)Oc1cc(C)oc(=O)c1,active: 7.94 µM,–
CC(C)OC(=O)c1c(N)n(CC2CCCO2)c2nc3ccccc3nc12 (centres undefined),"inconclusive: 28.2 µM [inhibitor, partial curve]",–
C[C@@H]1[C@@H](C)N1C[C@H](O)Cn1ccnc1[N+](=O)[O-] (some centres undefined),–,inactive: 11.4% [at 13.5 µM]
Nc1c(C(=O)NCc2ccco2)c2nc3ccccc3nc2n1CCN1CCCCC1,"inconclusive: 28.2 µM [inhibitor, partial curve]",–
CN1CCC2(CC1)CCN(C(=O)Oc1ccccc1)CC2,inactive,–
COc1ccc2c(c1)CC1(CN2C)C(=O)NC(=O)N(c2ccc(C)cc2)C1=O (centres undefined),"inconclusive: 28.2 µM [inhibitor, single point]",–
N[C@@H](Cc1cc(I)c(O)c(I)c1)C(=O)O,active: 11.2 µM,–
COc1ccc(OC)c(CN2CCN(C(=O)COc3cccc(C)c3)CC2)c1,"inconclusive: 17.8 µM [inhibitor, partial curve]",–
Cl/C=C\Cl,inactive,–
CCOc1ccc2nc(N=Nc3c(O)[nH]c(=O)[nH]c3=O)sc2c1,inactive,–
Cc1c(N=Cc2c(O)n(C3CCCCC3)c(=O)[nH]c2=O)c(=O)n(-c2ccccc2)n1C,"inconclusive: 39.8 µM [inhibitor, single point]",–
CCCCC/C=C\C/C=C\C/C=C\C/C=C\CCCC(=O)N[C@H](C)CO,active: 7.08 µM,–
OCCOc1ccccc1,"inconclusive: 39.8 µM [inhibitor, single point]",–
Cc1ccc2cc3c(ccc4ccccc43)c3c2c1CC3,"inconclusive: 39.8 µM [inhibitor, single point]",–
CC1CCCC(C2(O)C(=O)Nc3ccccc32)C1=O (centres undefined),inactive,–
COc1ccc(C(O)c2ccccc2OP(=O)(N(C)C)N(C)C)cc1 (centres undefined),inactive,–
CN1C(=O)NC(=O)/C(=C\c2ccc([N+](=O)[O-])o2)C1=O,"inconclusive: 25.1 µM [inhibitor, single point]",–
CC(O)(CS(=O)(=O)c1ccccc1)C(=O)Nc1cccc(C(F)(F)F)c1 (centres undefined),inactive,–
N#CC(C#N)=NNc1ccc(S(=O)(=O)N2CCCC2)cc1,"inconclusive: 25.1 µM [inhibitor, partial curve]",–
CCOC(=O)c1ccc(N2C(=O)CC(N3CCC(O)(c4ccc(Br)cc4)CC3)C2=O)cc1 (centres undefined),active: 1.58 µM,–
CCCOC(=O)c1cc2c(cn1)[nH]c1ccccc12,"inconclusive: 28.2 µM [inhibitor, partial curve]",–
Nc1ncnc2c1ncn2[C@@H]1O[C@H](COP(=O)(O)OP(=O)(O)OP(=O)(O)O)[C@H]2OC3(O[C@H]21)C([N+](=O)[O-])=CC(=[N+]([O-])[O-])C=C3[N+](=O)[O-] (some centres undefined),"inconclusive: 31.6 µM [inhibitor, single point]",–
